Assay results published in the supplement of paper PMC7125110.
Variants at the floor of the assay are shown more often than the library holds them.

B1: glmS ribozyme (parent)
chain: AUAAAAGCGCCAGAACUACAGAAAUGUAGUUGACGAGGAGGAGGUUUAUCGAAUUUUCGGCGGAUGCCUCCAAA

Columns and labels:
Settings in all cases: with glucosamine-6-phosphate
glucosamine-6-phosphate [1] = variants of: B1; assay: self-cleavage kobs at 40 uM GlcN6P; higher = faster cleavage; RNA array
Procedure, shortened: (§1)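 Tiles bearing barcoded ribozyme variants, transcribed in situ by E. coli RNA polymerase on sequenced MiSeq chips, were imaged over ~14 h at 37 °C using a hybridised Cy3 probe. Glucosamine-6-phosphate was supplied at 40 μM to 10 mM in HEPES/KCl/Mg(OAc)2 buffer. kobs came from one- or two-exponential decay fits to normalised per-tile medians, and weighted Michaelis–Menten fits then provided kcat and KM.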

glucosamine-6-phosphate [2] = variants of: B1; assay: self-cleavage kobs at 160 uM GlcN6P; higher = faster cleavage; RNA array
Procedure, shortened: as §1

glucosamine-6-phosphate [3] = variants of: B1; assay: self-cleavage kobs at 2500 uM GlcN6P; higher = faster cleavage; RNA array
Procedure, shortened: as §1

glucosamine-6-phosphate [4] = variants of: B1; assay: self-cleavage kobs at 640 uM GlcN6P; higher = faster cleavage; RNA array
Procedure, shortened: as §1

glucosamine-6-phosphate [5] = variants of: B1; assay: self-cleavage kobs at 10000 uM GlcN6P; higher = faster cleavage; RNA array
Procedure, shortened: as §1

Variant	self-cleavage kobs at 40 uM GlcN6P (glucosamine-6-phosphate [1]) [s⁻¹]	self-cleavage kobs at 160 uM GlcN6P (glucosamine-6-phosphate [2]) [s⁻¹]	self-cleavage kobs at 2500 uM GlcN6P (glucosamine-6-phosphate [3]) [s⁻¹]	self-cleavage kobs at 640 uM GlcN6P (glucosamine-6-phosphate [4]) [s⁻¹]	self-cleavage kobs at 10000 uM GlcN6P (glucosamine-6-phosphate [5]) [s⁻¹]
AUAAAAGCGCCAGAACUACAGAAAUGUAGUUGACGAGGAGGAGGUUUAUCUAAUUUUCGGCAGAUGCCUCCAAA [G51U G62A]	< 1e-05	< 1e-05	–	–	–
AUAAAAGCGCCAGAACUACAGAAAUGUAGUUGACGAGGAGGAGGUUUAUCCAAUUCUCGGCGGGUGCUUCCAAA [G51C U56C A64G C68U]	< 1e-05	–	–	–	–
AUAAAAGCGCCAGAACUACAGAAAUGUAGUUGACGAGGAGGAGGUUUAUCCAUUUUUCGGCGGAUGCCUCCAAA [G51C A53U]	< 1e-05	< 1e-05	< 1e-05	–	–
AUAAAAGCGCCAGAACUACAGAAAUGUAGUUGACGAGGAGGAGGUUUAUCAAAUUUUCUGCGGAUGCCUCCAAA [G51A G59U]	< 1e-05	–	–	–	–
AUAAAAGCGCCAGAACUACAGAAAUGUAGUUGACGAGGAGGAGGUUUAUCCAAUUUUCAGAGGAUGCCUUCAAA [G51C G59A C61A C70U]	< 1e-05	–	–	< 1e-05	–
AUAAAAGCGCCAGAACUACAGAAAUGUAGUUGACGAGGAGGAGGUUUAUCUAACUUUCGGCGGAUGCCUCCAAA [G51U U54C]	< 1e-05	< 1e-05	–	< 1e-05	< 1e-05
AUAAAAGCGCCAGAACUACAGAAAUGUAGUUGACGAGGAGGAGGUUUAUCAAAUUUUCGGCGGACGCCUCCAAA [G51A U65C]	< 1e-05	–	–	–	< 1e-05
AUAAAAGCGCCAGAACUACAGAAAUGUAGUUGACGAGGAGGAGGUUUAUCAAAUUUUCGGCGGAUGCCCCCAAA [G51A U69C]	< 1e-05	–	–	–	< 1e-05
AUAAAAGCGCCAGAACUACAGAAAUGUAGUUGACGAGGAGGAGGUUUAUCCAAUUUUCGGCGGAUGCCUUCAAA [G51C C70U]	< 1e-05	< 1e-05	< 1e-05	< 1e-05	< 1e-05
AUAAAAGCGCCAGAACUACAGAAAUGUAGUUGACGAGGAGGAGGUUUAUCCAAUUUUCGGCGGAUGCCUGCAAA [G51C C70G]	< 1e-05	< 1e-05	< 1e-05	–	–
AUAAAAGCGCCAGAACUACAGAAAUGUAGUUGACGAGGAGGAGGUUUAUCCAAUUUUCGGCGAAUGCCUCCAAA [G51C G63A]	< 1e-05	< 1e-05	< 1e-05	–	–
AUAAAAGCGCCAGAACUACAGAAAUGUAGUUGACGAGGAGGAGGUUUAUCCAAUUUUCGGCCGAUGCCUCCAAA [G51C G62C]	< 1e-05	< 1e-05	< 1e-05	< 1e-05	< 1e-05
AUAAAAGCGCCAGAACUACAGAAAUGUAGUUGACGAGGAGGAGGUUUAUCCAAUUUUCGUCGGAUGCCUCCAAA [G51C G60U]	< 1e-05	< 1e-05	–	< 1e-05	< 1e-05
